# Results: PubChem BioAssay AID1345083 (National Center for Advancing Translational Sciences (NCATS), 2018)
# The whole screen tested about 94,000 compounds, of which about 6,200 (6.6%) were called active. Inconclusive results, whose numbers are uncertain, are shown with a selection of clear calls. Calls come from the whole dose curve; as a rule, active = well fitted inhibition curve with a large enough effect; inconclusive = small, poorly fitted or top-dose-only effect; inactive = flat fitted curve, though single readings scatter. Potencies of inconclusive entries are doubtful fits and often do not repeat.
# Assay: Cytotoxic Profiling in HEK 293 Cell Line of Diverse Libraries Using Quantitative High-Throughput Screening; note: nearly all actives have a fitted effect of over 60% in size
# Conditions: HEK 293 viability, ATP luminescence (CellTiter-Glo), 48-72 h; activity change, negative = cytotoxicity: at 115 µM (top of the series) unless noted; series mostly up to 115 µM
# Summary of the method: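 Luminescence from cellular ATP, measured with CellTiter-Glo, indicates HEK 293 viability. Cells plated at 250 cells/well are treated with compound for 48 or 72 hr at 37 degree Celsius before reagent addition.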
# % is set by controls: 0 for no effect and ±100 for the full control effect; potency is the fitted concentration of half-maximal effect; tags give direction and shape of the fitted curve.
Structure (SMILES),"activity change, negative = cytotoxicity",Potency,outcome
C#CCNC(=O)c1nc2cccnc2n(Cc2ccc(OC)cc2)c1=O,inactive: -16.7%,,
COc1cccc(CNc2ncnc3c2CN(C2CCCC2)C(=O)CN3C)c1,inactive: -0.846%,,
O=C(CN1C(=O)NC2(CCCCC2)C1=O)Nc1cccc(Br)c1,,"inconclusive: 89.1 µM [inhibitor, single point]",
COC(=O)c1sccc1S(=O)(=O)N[C@H]1C[C@@H](C(=O)OC)N(C)C1,inactive: 0.372%,,
CSc1ccc(-c2cccc(CN3CCC(N[S+](=O)([O-])c4ccc(C)cc4)CC3)c2)cc1,,active: 20 µM,
CN1CCCN(C(=O)C2CCCC2)c2ccccc21,,active: 89.1 µM,
COc1ccccc1C(=O)N1CCCC(C(=O)N2CCCC2c2nc3ccncc3[nH]2)C1 (stereo unspecified),,,inactive
O=C(COc1ccccc1)N1CC[C@H](c2nnc(-c3ccccc3)o2)C1,inactive: -1.19% [at 172 µM],,
COc1ccc(-c2noc([C@@H]3CCCN3C(=O)c3ccccc3Cl)n2)cc1OC,,"inconclusive: 56.2 µM [inhibitor, partial curve, poor fit]",
O=C(NCc1cccs1)c1cc(-c2ccc(Cl)cc2Cl)c2nncn2n1,,"inconclusive: 56.2 µM [inhibitor, partial curve, poor fit]",
Cc1ccc(NC(=O)C2CCCCC(=O)N2)cc1F (stereo unspecified),inactive: 15.2%,,
N#Cc1cccc(NC(=O)N[C@H]2[C@H](O)[C@@H](Oc3ccccc3)[C@@H]3OC[C@H]2O3)c1,,"inconclusive: 79.4 µM [inhibitor, partial curve]",
CN(C)c1cccc(NC(=O)Cc2c[nH]c3ncc(-c4cnn(C)c4)cc23)c1,,active: 70.8 µM,
Cc1occc1C(=O)N1CCC2(CCCN(Cc3cccnc3)C2=O)C1 (stereo unspecified),inactive: -2.25%,,
Cc1nc(NCCN2CCOC2=O)c2sccc2n1,inactive: -27.2%,,
CN(Cc1cccc(C(F)(F)F)c1)C(=O)Cc1cccc(Cl)c1,,"inconclusive: 50.1 µM [inhibitor, partial curve, poor fit]",
CC(C)NC(=O)c1nc(-c2ccccc2)c2ccccn12,,"inconclusive: 126 µM [inhibitor, single point]",
CCc1nc(CN(C)C(C(=O)O)c2ccc(C(C)(C)C#N)cc2)no1 (stereo unspecified),,"inconclusive: 39.8 µM [inhibitor, single point]",

Structure (SMILES),"activity change, negative = cytotoxicity",Potency,outcome
Cc1cccc(-n2nc(-c3c(C)nc4scc(CC(=O)NCc5ccccc5)n4c3=O)cc2C)c1,,"inconclusive: 89.1 µM [inhibitor, partial curve, poor fit]",
Cc1ccc2nc([C@H]3CCN(Cc4ccccn4)C3)[nH]c2c1,,active: 50.1 µM,
O=C(c1ccccc1F)N1CCCC(C(=O)N2CCC(c3nc4ncccc4[nH]3)CC2)C1 (stereo unspecified),inactive: -2.08%,,
CC(C)CNC(=O)c1coc(COc2ccc3c(c2)C(c2cccc(F)c2)N(C(=O)C2CC2)CC3)n1 (stereo unspecified),,active: 14.1 µM,
CC(C)CCNc1ccc2nncn2n1,inactive: -10.2%,,
Cc1nnnn1CCC(=O)Nc1nn(C)c2cccc(Oc3cccnc3)c12,,"inconclusive: 89.1 µM [inhibitor, single point]",
CCOC(=O)C1(Cc2ccc(OC)cc2)CCNCC1,,,inactive
O=C(c1ccc(F)cc1)N1Cc2[nH]cnc2C[C@H]1c1nc(-c2ccc(Cl)cc2)no1,,"inconclusive: 100 µM [inhibitor, partial curve]",
CC(C)N1CCN(C(=O)c2csc(N3CCN(c4cccc(Cl)c4)CC3)n2)CC1,,"inconclusive: 44.7 µM [inhibitor, partial curve, poor fit]",
COc1ccc(CN2Cc3[nH]cnc3C[C@H]2C(=O)NCc2ccc(C#N)cc2)c2ccccc12,,"inconclusive: 79.4 µM [inhibitor, partial curve, poor fit]",
C=CCNc1ccccc1C(=O)NC(C(=O)O)c1c(C)n[nH]c1C (stereo unspecified),inactive: -6.07%,,
CCOc1ccc2c(n1)CCN(C(=O)CCC1CCCC1)C2,,"inconclusive: 89.1 µM [inhibitor, single point]",
O=[S+]1([O-])[C@@H](c2ccccc2)[C@H](COCc2ccccc2)CN1C1CC1,,"inconclusive: 44.7 µM [inhibitor, partial curve, poor fit]",
O=C(c1cccc(Cl)c1)N1CCN(CCCn2nc3n(c2=O)CCCC3)CC1,inactive: -2.18%,,
O=C(NCCN1CCOCC1)C1CN(S(=O)(=O)c2cccs2)CC12CCCCC2 (stereo unspecified),inactive: 5.51%,,
CCn1cc(-c2ccc(C)cc2)cc1C(=O)N1CCCN(C)CC1,,active: 79.4 µM,
O=C(c1nc2cccnc2n(C2CCCC2)c1=O)N1CCN(C(=O)C2CCCC2)CC1,,,inactive
COc1ccccc1C(=O)N1CCC(Oc2ccc(C(=O)N3CCOCC3)cn2)CC1,,"inconclusive: 89.1 µM [inhibitor, partial curve, poor fit]",
